# Results from PubChem BioAssay (Tox21).
# The shares of active, inactive and inconclusive entries below differ from those in the screen. For part of these data: Where the call is inconclusive, the potency comes from a doubtful curve fit. Activity calls are given as the source filed them. Unless noted, the call rests on the fitted dose curve; in most records, active means well fitted curve in the direction sought with a large enough effect in the repeat runs; inconclusive means weak or mixed curves; inactive means no such curve, though single readings can be large; an effect the other way counts as inactive or inconclusive.
# Assays:
# [1] = target: Estrogen receptor beta (Homo sapiens) (UniProt Q92731); assay: qHTS assay to identify small molecule agonists of the estrogen receptor beta (ER-beta) signaling pathway (AID 1259377; active means well fitted activation curve with a large enough effect in the signal ratio in the repeat runs, not every such curve was filed as active; inconclusive means weak or mixed curves, or effect the other way; the % refers to the signal ratio; further: potency means the concentration at half of the fitted maximal effect; on activation: on the % scale 0 is the no-effect control and ±100 the full control effect); conditions: ER-beta-UAS-bla HEK293T, beta-lactamase FRET ratio, 16 h
# Method in brief: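 Beta-lactamase reporter readout: fluorescence of LiveBLAzer B/G FRET substrate after 2 h at room temperature, following 16 h compound treatment of ER-beta-UAS-bla HEK293T cells at 37C in 2% charcoal-stripped FBS medium.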
# [2] = target: Estrogen receptor beta (Homo sapiens) (UniProt Q92731); assay: qHTS assay to identify small molecule antagonists of the estrogen receptor beta (ER-beta) signaling pathway (AID 1259378; active means well fitted inhibition curve with a large enough effect in the signal ratio in the repeat runs, not every such curve was filed as active; inconclusive means weak or mixed curves, or effect the other way; inactive means no such curve, though single readings can be large or run the other way; the % refers to the signal ratio; further: potency means the concentration at half of the fitted maximal effect; on activity, negative = inhibition: on the % scale 0 is the no-effect control and ±100 the full control effect); conditions: ER-beta-UAS-bla HEK293T, beta-lactamase FRET ratio, 16 h; activity, negative = inhibition: at 92.4 µM (top of the series) unless noted
# Method in brief: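 Antagonist mode: compounds added to beta-lactamase reporter HEK293T ER-beta-UAS cells stimulated with E2 (1nM final), 16 hr at 37C. LiveBLAzer B/G FRET substrate, 2 hours room temperature, fluorescence read-out.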
# [3] = qHTS assay to identify small molecule agonists of the androgen receptor (AR) signaling pathway in the presence of an antagonist - cell viability counter screen (AID 1259379); further: nearly all actives have a fitted effect of over 25% in size; further: potency means the concentration at half of the fitted maximal effect
# Method in brief: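 MDA-kb2 viability measured by CellTiter-Fluor fluorescence in the same wells as the luciferase signal; nilutamide 3.0uM final; 15-point compound titration; 16 hr at 37C.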
# [4] = qHTS assay to identify small molecule agonists of the estrogen receptor beta (ER-beta) signaling pathway - cell viability counter screen (AID 1259380); further: nearly all actives have a fitted effect of over 30% in size; further: potency means the concentration at half of the fitted maximal effect
# Method in brief: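 Measured: luminescence from CellTiter-Glo after 30 min at room temperature, added to wells already read for the LiveBLAzer FRET reporter (2 hr substrate); ER-beta-UAS-bla HEK293T cells had 16 hr compound treatment at 37C, 5% CO2.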
# [5] = target: Progesterone receptor (Homo sapiens) (UniProt P06401); assay: qHTS assay to identify small molecule antagonists of the progesterone receptor (PR) signaling pathway (AID 1346795; active means well fitted inhibition curve with a large enough effect in the signal ratio in the repeat runs, not every such curve was filed as active; inconclusive means weak or mixed curves; the % refers to the signal ratio; further: potency means the concentration at half of the fitted maximal effect; on activity change, negative = inhibition: on the % scale 0 is the no-effect control and ±100 the full control effect); conditions: PR-UAS-bla HEK293T, beta-lactamase FRET ratio, 16 h; activity change, negative = inhibition: at 92.4 µM (top of the series) unless noted
# Method in brief: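 Beta-lactamase reporter, HEK293T PR-UAS-bla line; 2% charcoal-stripped FBS; 6 hr pre-incubation, 37C/5% CO2. Compound + R5020 1 nM final, 16 hr. LiveBLAzer B/G FRET substrate, 2 hr RT; fluorescence intensity read.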
# [6] = qHTS assay to identify small molecule agonists of the progesterone receptor (PR) signaling pathway - cell viability counter screen (AID 1346799; calls by dose curve; further: nearly all actives have a fitted effect of over 45% in size; further: potency means the concentration at half of the fitted maximal effect)
# Method in brief: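 HEK293T PR-UAS-bla, 3,000 cells/well, 2% charcoal-stripped FBS; 6 h settle, compound 16 h at 37C/5% CO2; LiveBLAzer 2 h RT, then CellTiter-Glo 30 min RT, luminescence read.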
# [7] = target: Estrogen receptor (Homo sapiens) (UniProt P03372); assay: qHTS assay to identify small molecule agonists of the estrogen receptor alpha (ER-alpha) signaling pathway in the presence of an antagonist (AID 1259383; calls by dose curve; further: potency means the concentration at half of the fitted maximal effect; nearly all actives have a fitted effect of over 15% in size)
# Method in brief: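 Quantitative HTS confirmation: compounds titrated at 15 concentrations onto estrogen-deprived VM7Luc4E2 cells carrying a four-ERE luciferase construct, with ICI-182,780 present at 10.0nM final. Signal is luminescence after 22hr exposure.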
# [8] = qHTS assay to identify small molecule antagonists of the progesterone receptor (PR) signaling pathway - cell viability counter screen (AID 1346798); further: nearly all actives have a fitted effect of over 50% in size; further: potency means the concentration at half of the fitted maximal effect
# Method in brief: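 Luminescence readout (CellTiter-Glo, 30 min, RT) of viability in PR-UAS-bla HEK293T cells exposed to compound and R5020 agonist for 16 hr at 37C, 5% CO2; run in the same wells as the beta-lactamase reporter read.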
# [9] = qHTS assay to identify small molecule antagonists of the estrogen receptor beta (ER-beta) signaling pathway - cell viability counter screen (AID 1259382); further: potency means the concentration at half of the fitted maximal effect; nearly all actives have a fitted effect of over 55% in size
# Method in brief: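 Readout: luminescence, CellTiter-Glo, same wells as bla assay. System: ER-beta-UAS-bla GripTite HEK293T, 2% charcoal-stripped FBS. Exposure: compounds plus 1nM 17-beta-estradiol, 16 hr, 37C.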
# [10] = qHTS assay to identify small molecule agonists of the estrogen receptor alpha (ER-alpha) signaling pathway in the presence of an antagonist - cell viability counter screen (AID 1259386);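 further: potency means the concentration at half of the fitted maximal effect; cells exposed to compounds for 22 h at 37 °C before the viability read; nearly all actives have a fitted effect of over 30% in size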
# Method in brief: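 The test measures whether compounds kill ER-alpha reporter cells (VM7Luc4E2) under antagonist co-treatment (ICI-182,780, 10.0nM). Fluorescence from CellTiter-Fluor is read after a 22hr exposure.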
# [11] = qHTS assay to identify small molecule antagonists of the sonic hedgehog signaling (Shh) pathway (AID 1259369; calls by dose curve; further: on the % scale 0 is the no-effect control and ±100 the full control effect; nearly all actives have a fitted effect of over 45% in size)
# Method in brief: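 NIH/3T3 stable Gli1-Luc clone, 2,000 cells/well, 4hr settle; cpd + conditioned medium 24hr; Luc reagent 30min RT; luminescence.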
# [12] = qHTS assay to identify small molecule antagonists of the TGF-beta/Smad signaling pathway - cell viability counter screen (AID 1346824); further: potency means the concentration at half of the fitted maximal effect; nearly all actives have a fitted effect of over 50% in size
# Method in brief: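 Cytotoxicity counter-screen run in the same wells as the beta-lactamase Smad reporter read: CellTiter-Glo luminescence after 30 min at room temperature. HEK 293T SBE-bla cells had 5 hr compound exposure at 37 C with TGF-beta1 (0.25 ng/mL stock).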
# [13] = qHTS assay to identify small molecule agonists of the TGF-beta/Smad signaling pathway (AID 1346859; active means well fitted activation curve with a large enough effect in the signal ratio in the repeat runs, not every such curve was filed as active; inconclusive means weak or mixed curves; the % refers to the signal ratio; further: on the % scale 0 is the no-effect control and ±100 the full control effect); conditions: SBE-bla HEK293T, TGF-beta/Smad beta-lactamase reporter, 5 h; activation: at 76.8 µM (top of the series)
# Method in brief: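 Read-out: fluorescence at 460 and 530 nm (405 nm excitation) after a 2 hr room-temperature incubation with beta-lactamase FRET substrate. SBE-bla HEK 293T cells had been treated with test compounds for 5 hr at 37 C.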
# [14] = target: Androgen receptor (Homo sapiens) (UniProt P10275); assay: qHTS assay to identify small molecule agonists of the androgen receptor (AR) signaling pathway in the presence of an antagonist (AID 1259381; calls by dose curve; further: nearly all actives have a fitted effect of over 15% in size; further: potency means the concentration at half of the fitted maximal effect)
# Method in brief: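 Luminescent ONE-Glo read, 30min at room temperature, follows 16hr compound exposure (15 concentrations) of MDA-kb2 cells at 37C, 0% CO2, with nilutamide added at 3.0uM final.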
# [15] = qHTS assay to identify small molecule agonists of the TGF-beta/Smad signaling pathway - cell viability counter screen (AID 1346829); further: potency means the concentration at half of the fitted maximal effect; nearly all actives have a fitted effect of over 45% in size
# Method in brief: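 In parallel with the Smad reporter read, viability of HEK 293T cells stably carrying SBE-bla is quantified by ATP luminescence following 5 hr compound treatment.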
# [16] = activation: at 92.4 µM (top of the series) unless noted
# Tags describe the fitted curve by direction and shape or compound fluorescence and quenching.
# Sequence of UniProt P06401 (P06401 whole entry, looked up): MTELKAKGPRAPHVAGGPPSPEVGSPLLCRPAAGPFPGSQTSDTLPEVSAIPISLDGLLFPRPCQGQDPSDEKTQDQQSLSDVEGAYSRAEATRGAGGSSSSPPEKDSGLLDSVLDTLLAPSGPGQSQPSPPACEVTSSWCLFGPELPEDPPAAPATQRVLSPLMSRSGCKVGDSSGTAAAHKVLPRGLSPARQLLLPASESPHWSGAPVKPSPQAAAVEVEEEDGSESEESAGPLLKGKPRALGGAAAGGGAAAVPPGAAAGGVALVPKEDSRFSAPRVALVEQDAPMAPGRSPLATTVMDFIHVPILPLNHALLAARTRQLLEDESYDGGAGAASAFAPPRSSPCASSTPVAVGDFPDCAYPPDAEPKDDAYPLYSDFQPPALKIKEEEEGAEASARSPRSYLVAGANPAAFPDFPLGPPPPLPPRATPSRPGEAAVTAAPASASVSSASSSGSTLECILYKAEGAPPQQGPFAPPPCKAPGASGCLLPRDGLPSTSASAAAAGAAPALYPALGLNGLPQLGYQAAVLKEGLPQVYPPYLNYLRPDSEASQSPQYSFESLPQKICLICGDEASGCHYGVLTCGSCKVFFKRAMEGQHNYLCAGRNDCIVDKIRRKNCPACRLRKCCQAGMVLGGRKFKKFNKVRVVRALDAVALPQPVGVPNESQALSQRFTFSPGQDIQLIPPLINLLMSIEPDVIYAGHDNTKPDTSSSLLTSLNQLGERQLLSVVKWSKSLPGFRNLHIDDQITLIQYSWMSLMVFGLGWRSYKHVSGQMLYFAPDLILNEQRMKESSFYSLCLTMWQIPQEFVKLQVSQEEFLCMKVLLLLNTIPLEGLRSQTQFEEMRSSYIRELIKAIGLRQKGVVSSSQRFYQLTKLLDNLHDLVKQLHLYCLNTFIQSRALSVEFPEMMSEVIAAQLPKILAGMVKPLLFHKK
# Sequence of UniProt Q92731 (Q92731 whole entry, looked up): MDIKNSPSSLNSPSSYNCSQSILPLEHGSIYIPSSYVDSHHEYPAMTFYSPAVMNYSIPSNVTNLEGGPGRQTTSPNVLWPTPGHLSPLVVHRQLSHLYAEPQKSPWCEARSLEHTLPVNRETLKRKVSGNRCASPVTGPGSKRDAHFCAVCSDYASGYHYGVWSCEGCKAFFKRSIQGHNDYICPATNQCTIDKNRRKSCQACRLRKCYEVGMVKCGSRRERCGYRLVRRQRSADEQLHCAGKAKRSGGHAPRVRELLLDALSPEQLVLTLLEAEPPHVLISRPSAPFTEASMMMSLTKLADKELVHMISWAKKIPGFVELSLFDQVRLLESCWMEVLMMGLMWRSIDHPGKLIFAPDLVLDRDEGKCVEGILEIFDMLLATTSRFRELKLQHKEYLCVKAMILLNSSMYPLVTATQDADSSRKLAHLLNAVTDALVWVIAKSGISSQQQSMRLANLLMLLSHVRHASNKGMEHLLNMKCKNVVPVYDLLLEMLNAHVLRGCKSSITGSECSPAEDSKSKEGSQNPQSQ
# Sequence of UniProt P10275 (P10275 whole entry, looked up): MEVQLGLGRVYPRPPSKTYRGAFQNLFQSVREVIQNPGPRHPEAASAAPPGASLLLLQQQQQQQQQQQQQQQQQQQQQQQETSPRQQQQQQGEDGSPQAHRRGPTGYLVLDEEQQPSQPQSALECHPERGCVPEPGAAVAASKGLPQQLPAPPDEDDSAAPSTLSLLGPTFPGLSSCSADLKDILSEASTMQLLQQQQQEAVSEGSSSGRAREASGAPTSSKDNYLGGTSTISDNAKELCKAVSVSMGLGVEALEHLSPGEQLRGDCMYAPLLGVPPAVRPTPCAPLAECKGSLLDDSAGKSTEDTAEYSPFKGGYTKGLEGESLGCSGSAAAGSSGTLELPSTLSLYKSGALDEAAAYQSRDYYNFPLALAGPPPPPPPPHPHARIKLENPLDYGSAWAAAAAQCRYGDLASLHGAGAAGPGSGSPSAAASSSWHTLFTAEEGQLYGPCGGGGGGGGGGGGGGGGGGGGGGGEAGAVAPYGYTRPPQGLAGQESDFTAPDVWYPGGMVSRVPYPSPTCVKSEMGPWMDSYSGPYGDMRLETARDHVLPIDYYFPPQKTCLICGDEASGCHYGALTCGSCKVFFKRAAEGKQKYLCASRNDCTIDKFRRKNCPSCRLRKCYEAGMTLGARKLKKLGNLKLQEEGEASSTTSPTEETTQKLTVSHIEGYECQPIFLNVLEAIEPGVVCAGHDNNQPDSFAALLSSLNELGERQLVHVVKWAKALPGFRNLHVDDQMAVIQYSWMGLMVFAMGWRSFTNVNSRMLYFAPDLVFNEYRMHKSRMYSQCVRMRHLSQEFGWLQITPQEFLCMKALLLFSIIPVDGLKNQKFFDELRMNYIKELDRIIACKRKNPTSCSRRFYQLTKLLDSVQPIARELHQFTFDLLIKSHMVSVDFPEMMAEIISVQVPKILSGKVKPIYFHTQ
# Sequence of UniProt P03372 (P03372 whole entry, looked up): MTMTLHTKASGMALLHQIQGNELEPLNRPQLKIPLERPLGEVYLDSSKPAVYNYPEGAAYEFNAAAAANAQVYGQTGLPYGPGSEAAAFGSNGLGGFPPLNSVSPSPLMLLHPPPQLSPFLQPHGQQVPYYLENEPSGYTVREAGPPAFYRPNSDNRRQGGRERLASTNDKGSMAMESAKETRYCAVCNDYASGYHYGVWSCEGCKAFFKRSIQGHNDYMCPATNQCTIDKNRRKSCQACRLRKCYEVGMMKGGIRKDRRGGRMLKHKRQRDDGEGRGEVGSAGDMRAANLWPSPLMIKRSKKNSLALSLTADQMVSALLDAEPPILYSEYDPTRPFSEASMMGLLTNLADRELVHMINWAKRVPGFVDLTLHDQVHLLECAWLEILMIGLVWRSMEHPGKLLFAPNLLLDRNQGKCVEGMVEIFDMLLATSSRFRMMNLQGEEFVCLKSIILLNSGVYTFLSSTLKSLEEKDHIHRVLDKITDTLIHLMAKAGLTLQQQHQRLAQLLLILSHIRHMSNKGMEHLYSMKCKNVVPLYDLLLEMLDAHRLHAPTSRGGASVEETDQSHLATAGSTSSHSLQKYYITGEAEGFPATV
smiles,measurement,setting,value
CCOC(=O)c1ccccc1,Potency,[1]; [16],inactive
CC(CCl)OC(C)CCl (stereo unspecified),activation,[1]; [16],inconclusive: 9.33%
O=C(NS(=O)(=O)/C=C/c1cccs1)c1ccc(F)cc1Br,activation,[1]; [16],inconclusive: 11.1%
same,"activity, negative = inhibition",[2],inconclusive: 12.1%
C[Si](C)O[Si](C)(C)O[Si](C)(C)O[Si](C)C,activation,[1]; [16],inconclusive: 5.33%
same,"activity, negative = inhibition",[2],inconclusive: 28.5%
c1ccc(C(O[C@H]2CCCN(CCc3ccc4c(c3)OCO4)C2)c2ccccc2)cc1,Potency,[1]; [16],inactive
same,"activity, negative = inhibition",[2],inconclusive: -28% [at 42.5 µM]
same,Potency,[3],inactive
same,Potency,[4],"inconclusive: 15 µM [cytotoxic, partial curve, poor fit]"
same,Potency,[5],"inconclusive: 33.5 µM [rising, single point]"
same,Potency,[6],"inconclusive: 33.5 µM [rising, single point]"
NCCNCCNCCN,Potency,[1]; [16],"inconclusive: 33.5 µM [falling, single point]"
same,activation,[1]; [16],inconclusive: 6.36%
same,Potency,[4],"inconclusive: 33.5 µM [cytotoxic, single point]"
O=C(O)c1ccccc1NCCc1ccccc1,Potency,[1]; [16],"inconclusive: 16.8 µM [fluorescent, partial curve]"
same,"activity, negative = inhibition",[2],inconclusive: -29.8% [at 42.5 µM]
same,Potency,[4],inactive
same,Potency,[7],"inconclusive: 26.6 µM [activator, partial curve, poor fit]"
same,Potency,[5],inactive
same,Potency,[8],"inconclusive: 2.98 µM [cytotoxic, single point]"
NC(N)=NS(=O)(=O)c1ccc(N)cc1,Potency,[1]; [16],inactive
COC(=O)CCSCCC(=O)OC,activation,[1]; [16],inconclusive: 7.63%
same,Potency,[2],inactive
same,Potency,[4],inactive
CC1=C(C)C(=O)C(CCCCC#CCCCC#CCO)=C(C)C1=O,Potency,[1]; [16],"inconclusive: 33.5 µM [rising, single point]"
same,Potency,[2],active: 21.1 µM
same,Potency,[3],"inconclusive: 21.1 µM [cytotoxic, partial curve, poor fit]"
same,Potency,[4],active: 18.8 µM
same,Potency,[9],active: 26.6 µM
same,Potency,[10],"inconclusive: 29.8 µM [cytotoxic, single point]"
same,Potency,[5],"inconclusive: 33.5 µM [rising, single point]"
same,Potency,[8],"inconclusive: 33.5 µM [cytotoxic, single point]"
same,Potency,[6],"inconclusive: 37.6 µM [cytotoxic, single point]"
CCC(=O)O[C@@H]1C[C@H]2CC[C@]1(C)C2(C)C,Potency,[11],inactive
same,Potency,[12],"inconclusive: 0.382 µM [cytotoxic, single point]"
same,Potency,[13],inactive
OCCc1ccncc1,Potency,[11],inactive
same,Potency,[13],inactive
Cc1cc(C)c(C)c(C)c1,activation,[1]; [16],inconclusive: 12.5%
COC(C)(C)CC(C)=O,Potency,[1]; [16],inactive
same,"activity, negative = inhibition",[2],inconclusive: 6.38%
same,Potency,[3],inactive
same,Potency,[14],inactive
same,Potency,[6],"inconclusive: 68.6 µM [cytotoxic, single point]"
CC(C)(C)c1ccc(OCC2CO2)cc1 (stereo unspecified),Potency,[11],inactive
same,Potency,[13],inactive
COc1c2ccoc2cc2oc(=O)ccc12,activation,[1]; [16],inconclusive: 5.97%
same,"activity, negative = inhibition",[2],inconclusive: 27.5%
CC(=O)c1nccs1,Potency,[11],inactive
same,Potency,[6],inactive
same,Potency,[13],inactive
NC(Cc1c[nH]c2ccccc12)C(=O)O (stereo unspecified),Potency,[1]; [16],inactive
same,"activity, negative = inhibition",[2],inconclusive: 8.45% [at 42.5 µM]
C=CC(=O)OCC(C)OCC(C)OCC(C)OC(=O)C=C (stereo unspecified),Potency,[1]; [16],inactive
same,Potency,[2],active: 61.1 µM
same,Potency,[3],"inconclusive: 61.1 µM [cytotoxic, single point]"
same,Potency,[4],"inconclusive: 27.3 µM [cytotoxic, single point]"
same,Potency,[10],"inconclusive: 61.1 µM [cytotoxic, partial curve]"
same,Potency,[5],inconclusive: 68.6 µM
same,Potency,[15],"inconclusive: 11 µM [rising, full curve]"
CCN(CC)c1ccc(C=O)c(O)c1,Potency,[1]; [16],"inconclusive: 54.5 µM [fluorescent, partial curve]"
same,Potency,[2],"inconclusive: 54.5 µM [rising, partial curve]"
same,Potency,[3],"inconclusive: 61.1 µM [cytotoxic, partial curve, poor fit]"
same,Potency,[4],"inconclusive: 38.6 µM [cytotoxic, partial curve]"
same,Potency,[14],active: 43.3 µM
same,Potency,[5],"inconclusive: 24.3 µM [rising, partial curve]"
same,Potency,[8],inactive
O=C1c2cccc(O)c2C(=O)c2c(O)cc(CO)cc21,Potency,[1]; [16],"inconclusive: 6.11 µM [fluorescent, full curve]"
same,Potency,[2],"inconclusive: 17.2 µM [fluorescent, partial curve]"
same,Potency,[3],"inconclusive: 19.3 µM [cytotoxic, full curve]"
same,Potency,[4],"inconclusive: 8.63 µM [cytotoxic, full curve]"
same,Potency,[10],"inconclusive: 30.6 µM [cytotoxic, partial curve]"
same,Potency,[5],inactive
CC(C)=CCCC(C)CCOC=O (stereo unspecified),activation,[1]; [16],inconclusive: 6.59%
same,"activity, negative = inhibition",[2],inconclusive: 26.3%
O=C1c2ccccc2CCc2ccccc21,activation,[1]; [16],inconclusive: 12.4%
same,activation,[1]; at 42.5 µM (top of the series),inactive: 2.87%
CCCCCC/C(C=O)=C\c1ccccc1,activation,[1]; [16],inconclusive: 5.33%
NC(=O)c1ccccc1,Potency,[1]; [16],inactive
Cc1c[nH]c(=O)[nH]c1=O,activation,[1]; [16],inconclusive: 10.8%
